Legend:
TC-1 tumor cells = assay: In vivo tumor protection experiments (vaccination, then TC-1 challenge, EGCG in drinking water); parameters: species or system C57BL/6 mice; conditions: EGCG 0.5 mg/ml for 11 days; 42 days after TC-1 tumor challenge; all of the mice
E7-specific CD8+ T cells = assay: Intracellular IFN-γ staining and flow cytometry of splenocytes, E7-specific CD8+ T cells (Example 1); conditions: mice bearing tumors treated with only EGCG

## epigallocatechin-3-gallate [EGCG]
TC-1 tumor cells
  tumor growth by inspection and palpation: continued to demonstrate tumor growth
E7-specific CD8+ T cells
  E7-specific T cell immunity: only weak E7-specific T cell immunity
